Reference: the supplement of paper PMC4967469

Key:
Assay in all cases: Viability of human cancer cell lines after 72 h of drug (GDSC screen)
Bexarotene = compound: C=C(c1ccc(C(=O)O)cc1)c1cc2c(cc1C)C(C)(C)CCC2(C)C [Bexarotene]; details: top dose 8 µM
Experimental: (§1)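 Human cancer cell lines in 384-well plates, medium with 10% serum, drug for 72 h over a 256-fold dose range (nine 2-fold or five 4-fold steps up to the top dose). Adherent lines were fixed and stained with the nucleic acid dye Syto60, suspension lines read with resazurin; signal relative to control wells, capped at 0 and 100%. One two-parameter sigmoid per drug and line, fitted in a mixed model over all curves with the slope shared within a line.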

AZD7762 = compound: NC(=O)Nc1cc(-c2cccc(F)c2)sc1C(=O)N[C@H]1CCCNC1 [AZD7762]; details: top dose 2 µM
Experimental: as §1

XAV 939 = compound: Oc1nc(-c2ccc(C(F)(F)F)cc2)nc2c1CSCC2 [XAV 939]; details: top dose 5 µM; top dose inferred
Experimental: as §1

GSK-650394 = compound: O=C(O)c1ccc(-c2c[nH]c3ncc(-c4ccccc4)cc23)cc1C1CCCC1 [GSK-650394]; details: top dose 16 µM; top dose inferred
Experimental: as §1

YK 4-279 = compound: COc1ccc(C(=O)CC2(O)C(=O)Nc3c(Cl)ccc(Cl)c32)cc1 [YK 4-279]; details: top dose 10 µM
Experimental: as §1

NPK76-II-72-1 = compound: COc1cc(C(=O)NC2CCN(C)CC2)ccc1Nc1ncc2c(n1)N(C1CCCC1)C(C)CC(=O)N2C [NPK76-II-72-1]; details: top dose 10.24 µM; top dose inferred
Experimental: as §1

Etoposide = compound: COc1cc([C@@H]2c3cc4c(cc3[C@@H](O[C@@H]3O[C@@H]5CO[C@@H](C)O[C@H]5[C@H](O)[C@H]3O)[C@H]3COC(=O)[C@H]23)OCO4)cc(OC)c1O [Etoposide]; details: top dose 16 µM
Experimental: as §1

BMS-345541 = compound: Cc1ccc2nc(NCCN)c3ncc(C)n3c2c1 [BMS-345541]; details: top dose 16 µM
Experimental: as §1

Cell Line	AUC (Bexarotene)	IC50 (Bexarotene)	AUC (AZD7762)	IC50 (AZD7762)	AUC (XAV 939)	IC50 (XAV 939)	AUC (GSK-650394)	IC50 (GSK-650394)	AUC (YK 4-279)	IC50 (YK 4-279)	AUC (NPK76-II-72-1)	IC50 (NPK76-II-72-1)	AUC (Etoposide)	IC50 (Etoposide)	AUC (BMS-345541)	IC50 (BMS-345541)
HCC-78 (lung adenocarcinoma, adherent)	0.968	> 8 µM	0.705	0.526 µM	0.926	> 5 µM	0.983	> 16 µM	0.72	2.97 µM	0.94	> 10.2 µM	0.737	5.41 µM	0.815	10.7 µM
HD-MY-Z (Hodgkin lymphoma, adherent)	0.985	> 8 µM	0.415	0.0732 µM	0.959	> 5 µM	0.973	> 16 µM	0.721	2.66 µM	0.834	6.74 µM	0.823	9.53 µM	0.834	10.5 µM
HDLM-2 (Hodgkin lymphoma, suspension)	0.867	7.03 µM	0.816	1.09 µM	0.984	> 5 µM	0.981	> 16 µM	0.757	3.39 µM	0.989	> 10.2 µM	0.848	11.6 µM	0.872	14.9 µM
HDQ-P1 (breast, adherent)	0.957	> 8 µM	0.851	> 2 µM	0.956	> 5 µM	0.935	> 16 µM	0.894	> 10 µM	0.961	> 10.2 µM	0.784	8.25 µM	0.949	> 16 µM
HEC-1 (endometrium, adherent)	0.956	> 8 µM	0.809	0.996 µM	0.988	> 5 µM	0.886	> 16 µM	0.69	2.08 µM	0.989	> 10.2 µM	0.618	2.08 µM	0.977	> 16 µM
HGC-27 (stomach, adherent)	0.923	> 8 µM	0.748	0.561 µM	0.955	> 5 µM	0.434	0.681 µM	0.489	0.587 µM	0.902	9.78 µM	0.187	0.142 µM	0.847	9.21 µM
HMV-II (melanoma, adherent)	0.956	> 8 µM	0.873	> 2 µM	0.974	> 5 µM	0.728	5.22 µM	0.772	4.73 µM	0.871	> 10.2 µM	0.432	0.624 µM	0.861	> 16 µM
HN (head and neck, adherent)	0.975	> 8 µM	0.809	0.969 µM	0.969	> 5 µM	0.987	> 16 µM	0.523	0.718 µM	0.989	> 10.2 µM	0.847	10.7 µM	0.985	> 16 µM
HO-1-u-1 (head and neck, adherent)	0.982	> 8 µM	0.483	0.112 µM	0.985	> 5 µM	0.757	5.31 µM	0.844	6.74 µM	0.939	> 10.2 µM	0.572	1.56 µM	0.849	11.2 µM
HOP-62 (lung adenocarcinoma, adherent)	0.956	> 8 µM	0.552	0.174 µM	0.968	> 5 µM	0.808	8.23 µM	0.639	1.52 µM	0.923	> 10.2 µM	0.411	0.57 µM	0.719	4.15 µM
HOP-92 (large cell lung carcinoma, adherent)	0.964	> 8 µM	0.598	0.242 µM	0.981	> 5 µM	0.971	> 16 µM	0.738	3.38 µM	0.981	> 10.2 µM	0.718	4.63 µM	0.976	> 16 µM
HOS (osteosarcoma, adherent)	0.979	> 8 µM	0.767	0.627 µM	0.984	> 5 µM	0.644	2.33 µM	0.655	1.55 µM	0.992	> 10.2 µM	0.282	0.273 µM	0.988	> 16 µM
HSC-2 (head and neck, adherent)	0.947	> 8 µM	0.808	0.94 µM	0.983	> 5 µM	0.819	8.22 µM	0.487	0.578 µM	0.987	> 10.2 µM	0.46	0.783 µM	0.938	> 16 µM
HSC-39 (stomach, suspension)	0.991	> 8 µM	0.512	0.134 µM	0.968	> 5 µM	0.99	> 16 µM	0.74	2.68 µM	0.99	> 10.2 µM	0.976	> 16 µM	0.902	15.8 µM
HT-3 (cervix, adherent)	0.984	> 8 µM	0.721	0.534 µM	0.935	> 5 µM	0.915	> 16 µM	0.825	6.15 µM	0.921	> 10.2 µM	0.531	1.22 µM	0.871	15.6 µM
HT-1197 (bladder, adherent)	0.855	> 8 µM	0.891	> 2 µM	0.972	> 5 µM	0.981	> 16 µM	0.82	7.14 µM	0.978	> 10.2 µM	0.811	10.5 µM	0.892	> 16 µM
HT-1376 (bladder, adherent)	0.954	> 8 µM	0.92	> 2 µM	0.928	> 5 µM	0.854	> 16 µM	0.906	> 10 µM	0.985	> 10.2 µM	0.731	5.2 µM	0.972	> 16 µM

A lower IC50 marks a more sensitive line; a fit beyond the top or the lowest dose is shown as a bound at that dose. The AUC spans the tested range (256-fold, ending at the top dose) of the same fit; values near 1 show little effect. For some assays here: Where the top dose is marked as inferred, it is not printed in the source and was worked back from the curve model.
